The source of these data is the supplement of paper PMC10670038.

Each structure is given as a SMILES string. Structures can show the parent of a compound that is named as a salt. ± gives the standard deviation of the averaged measurements. Over roughly 2,000 compounds, “relative cell viability vs DMSO, compound alone” has its median near 1.1; the lowest 2% begin near 0.29. The list shows a part of the results.

For this assay, the system named is TE10. The assay is described as follows: relative cell viability vs DMSO, compound alone (fraction); TE10 is an esophageal squamous carcinoma line; higher = less cytotoxic. The following applies: 2 µM; 48 h. The procedure: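 TE10 ESCC cells (1,000/well, 384-well plates) were treated with Selleck bioactive library compounds at 2 uM alone for 48 h. Viability was read by CellTiter-Glo and expressed relative to DMSO wells. Two technical replicates (A, B).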
As for `COc1cc2nccc(Oc3ccc(NC(=O)Nc4ccc(F)cc4F)c(F)c3)c2cc1OC`, the relative cell viability is 1.17 ± 0.027.
As for `C[C@]12C=CC(=O)C=C1CC[C@@H]1[C@@H]2C(=O)C[C@@]2(C)[C@H]1CC[C@]2(O)C(=O)CO` [Prednisone], the figure is 0.968 ± 0.037; as for `COC(=O)CC[C@H](NC(=O)[C@H](CC(=O)OC)NC(=O)OCc1ccccc1)C(=O)N[C@H](C(=O)N[C@@H](CC(=O)OC)C(=O)CF)C(C)C`, 1.17 ± 0.014; as for `CCOC(=O)CCC(=O)O[C@H]1[C@H](O[C@@H]2[C@@H](C)[C@H](O[C@H]3C[C@@](C)(OC)[C@@H](O)[C@H](C)O3)[C@@H](C)C(=O)O[C@H](CC)[C@@](C)(O)[C@H](O)[C@@H](C)C(=O)[C@H](C)C[C@@]2(C)O)O[C@H](C)C[C@@H]1N(C)C` [Erythromycin Ethylsuccinate], 1.13 ± 0.14.
Regarding `COc1cc(NC(=O)c2ccc(-c3ccc(Cl)cc3)o2)cc(OC)c1`, the relative cell viability was found to be 1.17 ± 0.013.
`C[C@@H]1CN(c2c(F)c(N)c3c(=O)c(C(=O)O)cn(C4CC4)c3c2F)C[C@H](C)N1` [Sparfloxacin] displayed a relative cell viability of 1.02 ± 0.064.
Compound `CCNC(=O)c1noc(-c2cc(Cl)c(O)cc2O)c1-c1ccc(OC)cc1` had a relative cell viability of 0.607 ± 0.044.
`CCOC(=O)c1ccc(N2NC(=O)C(=Cc3ccc([N+](=O)[O-])o3)C2=O)cc1`: the relative cell viability stood at 1.01 ± 0.16.
For the compound `CCn1cc(C(=O)O)c(=O)c2cc(F)c(N3CCN(C)CC3)cc21` [Pefloxacin Mesylate Dihydrate], the relative cell viability turned out to be 1.03 ± 0.026.
On to `CCn1cc(C(=O)O)c(=O)c2cc(F)c(N3CCN(C)CC3)cc21` [Pefloxacin Mesylate], for which the relative cell viability stood at 1.076 ± 0.0036.
`CCc1cc(C(N)=S)ccn1` [Ethionamide]: the relative cell viability was 1.07 ± 0.062.
As for `Cn1cc(C2=C(c3ccc(Cl)cc3Cl)C(=O)NC2=O)c2ccccc21`, the figure is 1.27 ± 0.039.
Take `OCc1ccc(O[C@@H]2O[C@H](CO)[C@@H](O)[C@H](O)[C@H]2O)cc1` [Gastrodin]: the relative cell viability worked out at 1.12 ± 0.075.
For `O=C(NC(NC(=S)Nc1ccc(F)c([N+](=O)[O-])c1)C(Cl)(Cl)Cl)C(c1ccccc1)c1ccccc1` (centres undefined) the value was 0.881 ± 0.11.
In turn, `O=C(N/N=C/c1ccc([N+](=O)[O-])o1)c1ccc(O)cc1` [Nifuroxazide] returned a relative cell viability of 1.09 ± 0.072.
Consider `Cc1cccc(Nc2cc(Cl)nc(SCC(=O)O)n2)c1C`, for which the relative cell viability was 1.18 ± 0.021.
With `Cc1cc(NC(=O)c2cccc(NC(=O)/C=C/CN(C)C)c2)ccc1Nc1nccc(-c2cccnc2)n1`, the relative cell viability was found to be 0.708 ± 0.036.
`Cc1cn([C@@H]2C[C@@H](O)[C@H](CO)O2)c(=O)[nH]c1=O` [Telbivudine]: the relative cell viability amounted to 1.09 ± 0.06.
As to `COc1cc2c(cc1NS(=O)(=O)c1ccc(Br)cc1C)n(C)c(=O)n2C`, the relative cell viability stood at 1.17 ± 0.07.
As for `CCOC(=O)NCCCC(=O)NCCc1ccccc1`, the figure is 1.1 ± 0.031; as for `CCC[C@H](NC(=O)/C(C#N)=C/c1cccc(Br)n1)c1ccccc1` [Degrasyn (WP1130)], 0.206 ± 0.019.
Take `COC(=O)c1ccc2c(c1)[nH]c1ncnc(NCCCN3CCCCC3)c12`: the relative cell viability stood at 0.964 ± 0.03.
Compound `C[C@H]1[C@H](NC(=O)/C(=N\OC(C)(C)C(=O)O)c2csc(N)n2)C(=O)N1S(=O)(=O)O` [Aztreonam] returned a relative cell viability of 1.15 ± 0.059.
On to `OC[C@H]1O[C@@H](OCCc2ccc(O)cc2)[C@H](O)[C@@H](O)[C@@H]1O` [Salidroside], for which the relative cell viability was 1.01 ± 0.018.
With `CCc1c2c(nc3ccc(OC(=O)N4CCC(N5CCCCC5)CC4)cc13)-c1cc3c(c(=O)n1C2)COC(=O)[C@]3(O)CC` [Irinotecan], the relative cell viability is 1.26 ± 0.051.
On to `CCc1c2c(nc3ccc(OC(=O)N4CCC(N5CCCCC5)CC4)cc13)-c1cc3c(c(=O)n1C2)COC(=O)[C@]3(O)CC` [Irinotecan HCl Trihydrate], for which the relative cell viability stood at 1.2 ± 0.022.
As for `COc1cc2nc(N3CCN(C(=O)C4CCCO4)CC3)nc(N)c2cc1OC` (centres undefined) [Terazosin HCl], the figure is 0.963 ± 0.024.
`CN1CCN(c2cccc(Nc3nc4c(-c5ccc(S(C)(=O)=O)cc5)cccn4n3)c2)CC1` had a relative cell viability of 0.994 ± 0.049.
In turn, `CN[C@@H](C)C(=O)N[C@H](C(=O)N1CCC[C@H]1C(=O)Nc1snnc1-c1ccccc1)C1CCCCC1` showed a relative cell viability of 0.9403 ± 0.0033.
The compound `CNC(=O)c1nn(C)c2c1C(C)(C)Cc1cnc(Nc3ccc(N4CCN(C)CC4)cc3)nc1-2` came in with a relative cell viability of 0.907 ± 0.021.
Take `CC(C)(O)CC[C@@H](O)[C@](C)(O)[C@H]1CC[C@@]2(O)C3=CC(=O)[C@@H]4C[C@@H](O)[C@@H](O)C[C@]4(C)[C@H]3CC[C@]12C` [20-Hydroxyecdysone]: the relative cell viability is 1.056 ± 0.0032.
For `CC(Oc1cc(-c2cnn(C3CCNCC3)c2)cnc1N)c1c(Cl)ccc(F)c1Cl` [(S)-crizotinib], the relative cell viability is 1.16 ± 0.043.
Compound `FC(F)(F)c1ccc(/C=C/c2nc(COc3ccc(CCCCn4ccnn4)cc3)co2)cc1` [Mubritinib (TAK 165)] showed a relative cell viability of 1.06 ± 0.03.
The compound `CN(C)CCCOc1nn(Cc2ccccc2)c2ccccc12` [Benzydamine HCl] yielded a relative cell viability of 1.11 ± 0.088.
Compound `O=C1c2c(O)cc(O)cc2OC(c2ccc(O)c(O)c2)C1O` (centres undefined) [Taxifolin (Dihydroquercetin)] had a relative cell viability of 1.08 ± 0.02.
As for `OC[C@@H](O)[C@@H](O)[C@H](O)[C@@H](O)CO` [Sorbitol], the figure is 1.13 ± 0.019; as for `CC(C)(C)c1cc(C(=O)C(C#N)=NNc2cccc(Cl)c2)no1`, 0.99495 ± 0.00057; as for `CC(=O)OCC(=O)[C@@]1(O)CC[C@H]2[C@@H]3CCC4=CC(=O)CC[C@]4(C)[C@H]3C(=O)C[C@@]21C` [Cortisone acetate], 1.17 ± 0.078.
Turning to `CCCCC(=O)O[C@]1(C(=O)CO)[C@@H](C)C[C@H]2[C@@H]3CCC4=CC(=O)C=C[C@]4(C)[C@@]3(F)[C@@H](O)C[C@@]21C` [Betamethasone valerate (Betnovate)], the relative cell viability was found to be 0.865 ± 0.078.
Compound `NC(=O)c1ncn([C@@H]2O[C@H](CO)[C@@H](O)[C@H]2O)c1N` [Acadesine] yielded a relative cell viability of 1.07 ± 0.041.
Take `CC1=C(C(=O)OC2CCCCC2)C(c2ccc([N+](=O)[O-])cc2)C2=C(CC(C)(C)CC2=O)N1` (centres undefined): the relative cell viability was 1.15 ± 0.14.
`C[C@@H]1C(=O)O[C@H]2C[C@@]34[C@H]5C[C@@H](C(C)(C)C)[C@]36[C@@H](OC(=O)[C@@H]6O)O[C@@]4(C(=O)O5)[C@]21O` [Ginkgolide A]: the relative cell viability worked out at 0.972 ± 0.085.
`CC(c1cc2ccccc2s1)N(O)C(N)=O` (centres undefined) [Zileuton] returned a relative cell viability of 1.1 ± 0.065.
For `COc1cc(C)c(/C=C/C(C)=C/C=C/C(C)=C/C(=O)O)c(C)c1C` [Acitretin] the value was 1.16 ± 0.053.
Regarding `CC(C)(F)C[C@H](N[C@@H](c1ccc(-c2ccc(S(C)(=O)=O)cc2)cc1)C(F)(F)F)C(=O)NC1(C#N)CC1` [Odanacatib (MK-0822)], the relative cell viability came out at 0.941 ± 0.12.
Compound `CN(C)CCc1c[nH]c2ccc(C[C@H]3COC(=O)N3)cc12` [Zolmitriptan] had a relative cell viability of 1.03 ± 0.056.
In turn, `O=C1c2cccc(O)c2C(=O)c2c(O)cc(CO)cc21` [Aloe-emodin] had a relative cell viability of 1.13 ± 0.062.
The compound `CN(C)CCC=C1c2ccccc2C=Cc2ccccc21` [Cyclobenzaprine HCl] came in with a relative cell viability of 1.12 ± 0.022.
In turn, `COc1cc(/C=C/C(=O)O)ccc1O` [Ferulic Acid] showed a relative cell viability of 0.993 ± 0.098.
For `C[N+]1(C)CCC(=C(c2ccccc2)c2ccccc2)CC1` [Diphemanil Methylsulfate] the value was 0.918 ± 0.097.
With `NS(=O)(=O)c1cc2c(cc1Cl)NCNS2(=O)=O` [Hydrochlorothiazide], the relative cell viability was determined as 1.05 ± 0.059.
As to `O=C1C(=O)N(Cc2ccc(Cl)c(Cl)c2)c2ccccc21` [Apoptosis Activator 2], the relative cell viability amounted to 1.05 ± 0.0069.
With `O=C(NC1CCOCC1)c1ccc(-c2cc(-c3c[nH]nc3-c3ccccn3)ccn2)cc1`, the relative cell viability was determined as 1.21 ± 0.098.
In turn, `O=c1[nH]c(=O)n([C@H]2C[C@H](O)[C@@H](CO)O2)cc1F` [Floxuridine] returned a relative cell viability of 1.15 ± 0.077.
As for `Cc1c(C(=O)Nc2ccc(Oc3ccnc4[nH]cc(-c5ccccc5)c34)c(F)c2)c(=O)n(-c2ccc(F)cc2)n1C`, the figure is 1 ± 0.027; as for `CN[C@@H](C)C(=O)N[C@H](C(=O)N1CCC[C@H]1c1nc(C(=O)c2ccc(F)cc2)cs1)C1CCCCC1`, 0.954 ± 0.011; as for `COc1c(C)c(C(=O)c2ccc(N)c(C(=O)O)c2)n2ccccc12`, 1.04 ± 0.041.
For `COc1ccc(-c2ccc3c(N4CCOC[C@@H]4C)nc(N4CCOC[C@@H]4C)nc3n2)cc1CO` the value was 0.4942 ± 0.0022; for `CC(C)C[C@H](NP(=O)(O)O[C@@H]1O[C@@H](C)[C@H](O)[C@@H](O)[C@H]1O)C(=O)N[C@@H](Cc1c[nH]c2ccccc12)C(=O)O` [Phosphoramidon Disodium Salt], 1.18 ± 0.053.
On to `COc1ccc([C@@H]2CC(=O)c3c(O)cc(O)cc3O2)cc1O` [Hesperetin], for which the relative cell viability is 1.1 ± 0.022.
As for `Nc1c(CC(=O)O)cccc1C(=O)c1ccccc1` [Amfenac Sodium Monohydrate], the figure is 0.954 ± 0.034; as for `CC(C)(C)C(=O)Nc1ccc2c(c1)C(=O)C(=O)c1ccccc1-2`, 0.0653 ± 0.0041; as for `CC(=O)Oc1ccccc1C(=O)Nc1ncc([N+](=O)[O-])s1` [Nitazoxanide], 0.992 ± 0.036.
For `NC(=O)c1ccc(N(C(N)=O)c2c(F)cccc2F)nc1-c1ccc(F)cc1F`, the relative cell viability was 1.05 ± 0.015.
The compound `CCCCCCCCCCCCCCCC(=O)OCC(O)C1OC(=O)C(O)=C1O` [L-Ascorbyl 6-palmitate] displayed a relative cell viability of 1.14 ± 0.031.
Regarding `CCCc1cc(C)[nH]c(=O)c1CNC(=O)c1cc(-c2ccc(N3CCN(C(C)C)CC3)nc2)cc2c1cnn2C(C)C`, the relative cell viability is 1.13 ± 0.022.
Regarding `CC(C)CC(N)=O` [Isovaleramide], the relative cell viability amounted to 1.1 ± 0.057.
As for `CN1CCN(C2=Nc3ccccc3Oc3ccc(Cl)cc32)CC1` [Loxapine Succinate], the relative cell viability was found to be 1.01 ± 0.026.
As for `N=C(NCCCCCCNC(=N)NC(=N)Nc1ccc(Cl)cc1)NC(=N)Nc1ccc(Cl)cc1` [Chlorhexidine HCl], the figure is 1.08 ± 0.019; as for `COc1c2occc2cc2ccc(=O)oc12` [Methoxsalen], 0.9204 ± 0.0057.
Turning to `CCOC(=O)[C@@H](N)Cc1ccc(-c2cc(O[C@H](c3ccc(Cl)cc3-n3ccc(C)n3)C(F)(F)F)nc(N)n2)cc1` [Telotristat Etiprate (LX 1606 Hippurate)], the relative cell viability amounted to 1.037 ± 0.01.
`O=C(Nc1cccc(Cl)c1)c1ccccn1` came in with a relative cell viability of 1.11 ± 0.032.
Consider `N#Cc1ccc(C(c2ccc(C#N)cc2)n2cncn2)cc1` [Letrozole], for which the relative cell viability was 1.16 ± 0.013.
Compound `C[C@@]1(C(=O)Nc2ccc(F)nc2)CCCN1c1nc(Nc2cc(C3CC3)n[nH]2)c2cccn2n1` yielded a relative cell viability of 0.665 ± 0.042.
